From the supplement of paper PMC6531468
The list shows a part of the results. Read counts after selection give these values, which scatter widely. Scores sum up all selected molecules that hold the word; the word was not tested alone.

Tests used:
Assay in all cases: 6-mer SELEX enrichment z-score vs GST control; IMP3 is the RNA-binding protein IGF2BP3; higher = more enriched by binding
IMP3 KH1-4 = conditions: construct: KH1-4 (164-579); SELEX round: R4
Procedure: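 SELEX-seq with GST-tagged IMP3 KH1-4 (Pro164-Lys579) and an N40 RNA pool, round 4. 6-mer z-score of sequence-tag enrichment normalised to the corresponding GST SELEX round; RNA k-mers written as DNA (T for U).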

IMP3 RRM1-2 = conditions: construct: RRM1-2 (1-163); SELEX round: R2
IMP3 RRM1-2, sequence (chain, as listed by the source): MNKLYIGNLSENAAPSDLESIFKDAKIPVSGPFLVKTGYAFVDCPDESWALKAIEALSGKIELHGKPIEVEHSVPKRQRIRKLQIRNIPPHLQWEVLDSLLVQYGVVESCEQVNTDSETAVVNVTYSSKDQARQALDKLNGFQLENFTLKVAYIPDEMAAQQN
Procedure: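 SELEX-seq with GST-tagged IMP3 RRM1-2 (Met1-Asn163) and an N40 RNA pool, round 2. 6-mer enrichment z-score normalised to GST SELEX. RNA written as DNA (T = U).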

IMP3 full-length = IMP3 full-length (UniProt O00425); conditions: construct: FL IMP3 (1-579); SELEX round: R4
UniProt O00425, sequence (O00425 whole entry): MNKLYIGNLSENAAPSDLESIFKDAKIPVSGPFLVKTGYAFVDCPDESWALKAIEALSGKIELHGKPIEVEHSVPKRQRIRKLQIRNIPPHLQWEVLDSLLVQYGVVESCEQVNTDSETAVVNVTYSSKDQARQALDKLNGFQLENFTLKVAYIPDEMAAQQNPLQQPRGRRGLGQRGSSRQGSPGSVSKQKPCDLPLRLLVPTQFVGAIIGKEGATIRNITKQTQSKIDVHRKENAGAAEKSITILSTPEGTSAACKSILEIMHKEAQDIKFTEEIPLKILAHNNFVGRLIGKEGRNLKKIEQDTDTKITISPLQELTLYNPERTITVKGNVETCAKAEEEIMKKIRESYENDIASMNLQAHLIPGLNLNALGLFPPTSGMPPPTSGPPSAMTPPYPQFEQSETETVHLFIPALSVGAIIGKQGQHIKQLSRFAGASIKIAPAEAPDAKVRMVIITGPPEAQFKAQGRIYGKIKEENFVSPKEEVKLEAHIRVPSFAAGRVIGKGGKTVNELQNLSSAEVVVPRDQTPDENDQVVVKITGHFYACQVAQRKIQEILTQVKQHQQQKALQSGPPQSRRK
Procedure: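 SELEX-seq with GST-tagged full-length IMP3 and an N40 RNA pool, round 4. Each 6-mer is scored as an enrichment z-score of sequence tags containing it, normalised to the matching GST SELEX round. RNA written as DNA (T = U).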

IMP3 KH1-2 = conditions: construct: KH1-2 (164-376); SELEX round: R4
IMP3 KH1-2, sequence (chain, as listed by the source): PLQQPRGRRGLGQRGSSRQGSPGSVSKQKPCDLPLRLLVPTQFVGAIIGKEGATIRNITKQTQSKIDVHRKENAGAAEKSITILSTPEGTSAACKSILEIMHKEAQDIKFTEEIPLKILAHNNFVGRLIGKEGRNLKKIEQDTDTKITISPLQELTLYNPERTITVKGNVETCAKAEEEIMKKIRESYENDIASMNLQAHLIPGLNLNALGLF
Procedure: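 SELEX-seq with GST-tagged IMP3 KH1-2 (Pro164-Phe376) and an N40 RNA pool, round 4 (stringent 300/600 mM KCl washes). 6-mer z-score of sequence-tag enrichment normalised to the corresponding GST SELEX round; RNA k-mers written as DNA (T for U).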

IMP3 KH3-4 = conditions: construct: KH3-4 (377-579); SELEX round: R4
IMP3 KH3-4, sequence (chain, as listed by the source): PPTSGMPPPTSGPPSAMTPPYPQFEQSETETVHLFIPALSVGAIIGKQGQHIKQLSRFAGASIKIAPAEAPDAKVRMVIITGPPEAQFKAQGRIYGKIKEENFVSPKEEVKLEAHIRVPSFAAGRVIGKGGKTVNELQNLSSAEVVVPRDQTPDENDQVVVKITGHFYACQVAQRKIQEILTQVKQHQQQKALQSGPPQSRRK
Procedure: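 SELEX-seq with GST-tagged IMP3 KH3-4 (Pro377-Lys579) and an N40 RNA pool, round 4. 6-mer z-score of sequence-tag enrichment normalised to the corresponding GST SELEX round; RNA k-mers written as DNA (T for U).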

IMP3 KH1-4, sequence (chain, as listed by the source): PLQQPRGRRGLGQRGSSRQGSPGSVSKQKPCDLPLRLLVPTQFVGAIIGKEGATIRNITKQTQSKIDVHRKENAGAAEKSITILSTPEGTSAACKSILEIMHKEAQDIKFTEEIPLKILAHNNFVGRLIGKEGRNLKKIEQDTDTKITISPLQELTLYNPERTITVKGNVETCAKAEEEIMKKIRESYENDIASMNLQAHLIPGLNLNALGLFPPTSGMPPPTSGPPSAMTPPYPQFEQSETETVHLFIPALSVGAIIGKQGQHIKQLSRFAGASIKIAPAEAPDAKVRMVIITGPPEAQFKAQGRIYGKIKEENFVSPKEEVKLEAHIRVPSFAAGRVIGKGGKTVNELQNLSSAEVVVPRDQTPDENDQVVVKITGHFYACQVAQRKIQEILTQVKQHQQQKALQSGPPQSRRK

| Sequence | 6-mer SELEX enrichment z-score (IMP3 KH1-4) | 6-mer SELEX enrichment z-score (IMP3 RRM1-2) | 6-mer SELEX enrichment z-score (IMP3 full-length) | 6-mer SELEX enrichment z-score (IMP3 KH1-2) | 6-mer SELEX enrichment z-score (IMP3 KH3-4) |
| --- | --- | --- | --- | --- | --- |
| AACCTA | -1.42 | -1.07 | -1.93 | -1.46 | -1.57 |
| CTCCGA | -1.21 | -0.632 | -0.675 | -0.949 | -1.25 |
| TAGCCG | -0.328 | -0.181 | -0.155 | -0.302 | -0.376 |
| GGGCAG | 0.475 | 0.097 | 0.989 | 0.728 | 0.561 |
| GCGGGG | 0.783 | -0.028 | 0.872 | 1.28 | 0.927 |
| ACTTAA | 0.793 | -0.517 | -0.425 | 0.709 | 1.13 |
| CACTTA | 1.24 | 0.633 | 0.544 | 1.17 | 0.971 |
| TCAACT | 0.401 | 0.578 | 0.439 | 0.426 | 0.252 |
| TGCCGG | -0.198 | -0.166 | 0.228 | -0.164 | -0.242 |
| ATTCGG | 0.471 | 0.234 | 0.652 | 0.215 | 0.55 |
| GTGCTA | -0.138 | 0.079 | -0.157 | -0.124 | 0.009 |
| CAACGC | -0.65 | 0.062 | 0.079 | -0.597 | -1.17 |
| TTGTAT | 0.465 | 0.212 | 0.047 | 0.286 | 0.649 |
| CCATCA | 0.788 | 2.86 | 2.43 | 0.861 | 0.015 |
| TGAATT | 1.21 | -0.45 | -0.094 | 0.828 | 1.63 |
| TGCCCA | -1.95 | -0.449 | -1.5 | -1.75 | -2.19 |
| AGGACG | 0.234 | -0.638 | 0.237 | 0.081 | 0.109 |
| TGTCGT | -0.138 | 0.371 | 0.105 | -0.147 | 0.031 |
| GCAGTC | 1.11 | 0.447 | 1.15 | 0.756 | 0.518 |
| CAATAA | 1.51 | -0.01 | 0.82 | 2.32 | 2.09 |
| GTGACC | -0.809 | -0.535 | -0.701 | -0.834 | -1.1 |
| TACTGC | 0.33 | 0.054 | -0.085 | 0.496 | 0.102 |
| GAGAAG | 0.495 | -0.984 | -0.226 | 0.385 | 0.717 |
| TCTGAG | -0.9 | -0.069 | -0.391 | -0.746 | -0.648 |
| TACTAG | 0.348 | 0.129 | -0.018 | 0.274 | 0.506 |
| ATTACG | 0.795 | 0.033 | 0.075 | 0.606 | 1.01 |
| TGAGCA | -1.23 | 0.125 | -0.275 | -1.13 | -1 |
| GAACTA | 0.245 | -1.02 | -0.644 | 0.154 | 0.578 |

| Sequence | 6-mer SELEX enrichment z-score (IMP3 KH1-4) | 6-mer SELEX enrichment z-score (IMP3 RRM1-2) | 6-mer SELEX enrichment z-score (IMP3 full-length) | 6-mer SELEX enrichment z-score (IMP3 KH1-2) | 6-mer SELEX enrichment z-score (IMP3 KH3-4) |
| --- | --- | --- | --- | --- | --- |
| TAGAAA | 0.071 | -1.14 | -0.97 | 0.05 | 0.957 |
| AGTTGC | -0.211 | 0.246 | -0.142 | -0.274 | -0.24 |
| CCGCGA | -1.24 | -0.942 | -0.548 | -1.01 | -1.27 |
| TTAGAG | -0.18 | -0.081 | -0.301 | -0.22 | 0.147 |
| AGGCAT | 1.19 | 0.692 | 2.1 | 0.609 | 0.84 |
| CGGGTC | -0.477 | 0.026 | 0.366 | -0.277 | -0.292 |
| TGTCCC | -0.172 | -0.219 | -0.329 | -0.236 | -0.704 |
| CCATAT | 1.41 | 0.449 | 0.591 | 1.28 | 1.14 |
| TCCACA | 0.597 | 1.17 | 0.712 | 0.619 | -0.304 |
| TCGTTT | 0.028 | 0.455 | 0.094 | 0.034 | 0.212 |
| ACCCGG | -1.79 | -1.05 | -0.882 | -1.62 | -1.84 |
| GACGGG | 0.003 | -0.535 | 0.32 | 0.259 | 0.074 |
| CTAAGC | -0.867 | -0.061 | -0.756 | -0.829 | -0.865 |
| ATAGTA | 0.516 | -0.056 | 0.114 | 0.323 | 0.766 |
| ATCTTT | 0.681 | 0.425 | 0.387 | 0.507 | 0.593 |
| AAAGGA | 0.468 | -1.7 | -0.912 | 0.084 | 1.09 |
| GGAGCT | -0.324 | -0.048 | -0.017 | -0.203 | -0.086 |
| GTGTGC | 0.484 | 0.114 | 0.16 | 0.24 | 0.219 |
| CTCGTA | -0.672 | 0.091 | -0.275 | -0.592 | -0.564 |
| TATACG | 1.07 | -0.18 | 0.04 | 0.8 | 1.03 |
| CGCCGT | -0.372 | -0.115 | 0.245 | -0.199 | -0.385 |
| AGACTA | 0.114 | -0.564 | -0.517 | 0.141 | 0.422 |
| TATAAG | 0.947 | -0.179 | 0.032 | 0.72 | 1.5 |
| ATTACC | -0.094 | -0.391 | -0.466 | -0.1 | -0.306 |
| GTCTAC | -0.284 | 0.113 | 0.02 | -0.308 | -0.332 |
| GCCAAT | 0.108 | -0.127 | 0.085 | 0.064 | 0.157 |
| GCAGGC | 1.44 | 0.39 | 1.87 | 1.13 | 0.972 |
